# Measurements reported in PubChem BioAssay AID504339 (National Center for Advancing Translational Sciences (NCATS), 2011).
# Among all 390,000 compounds or so, about 17,000 (4.4%) were called active. The inconclusive results got no clear call from the source; some entries with a clear call stand among them for comparison. Calls come from the whole dose curve; as a rule, active = well fitted inhibition curve with a large enough effect; inconclusive = small, poorly fitted or top-dose-only effect; inactive = no such curve, though single readings can be large or run the other way. Potencies beside an inconclusive call are fits to weak or partial responses and may not hold up.
# Biological target: Lysine-specific demethylase 4A (Homo sapiens) (UniProt O75164)
# Assay: qHTS Assay for Inhibitors of JMJD2A-Tudor Domain; note: nearly all actives have a fitted effect of over 50% in size
# Conditions: AlphaScreen JMJD2A-Tudor / H3K4me3 peptide binding; activity change, negative = inhibition: at 114 µM (top of the series)
# % is set by controls: 0 for no effect and ±100 for the full control effect; potency is the fitted concentration of half-maximal effect; tags give direction and shape of the fitted curve.
# Sequence of UniProt O75164 (O75164 whole entry, looked up, the tested form may be a part): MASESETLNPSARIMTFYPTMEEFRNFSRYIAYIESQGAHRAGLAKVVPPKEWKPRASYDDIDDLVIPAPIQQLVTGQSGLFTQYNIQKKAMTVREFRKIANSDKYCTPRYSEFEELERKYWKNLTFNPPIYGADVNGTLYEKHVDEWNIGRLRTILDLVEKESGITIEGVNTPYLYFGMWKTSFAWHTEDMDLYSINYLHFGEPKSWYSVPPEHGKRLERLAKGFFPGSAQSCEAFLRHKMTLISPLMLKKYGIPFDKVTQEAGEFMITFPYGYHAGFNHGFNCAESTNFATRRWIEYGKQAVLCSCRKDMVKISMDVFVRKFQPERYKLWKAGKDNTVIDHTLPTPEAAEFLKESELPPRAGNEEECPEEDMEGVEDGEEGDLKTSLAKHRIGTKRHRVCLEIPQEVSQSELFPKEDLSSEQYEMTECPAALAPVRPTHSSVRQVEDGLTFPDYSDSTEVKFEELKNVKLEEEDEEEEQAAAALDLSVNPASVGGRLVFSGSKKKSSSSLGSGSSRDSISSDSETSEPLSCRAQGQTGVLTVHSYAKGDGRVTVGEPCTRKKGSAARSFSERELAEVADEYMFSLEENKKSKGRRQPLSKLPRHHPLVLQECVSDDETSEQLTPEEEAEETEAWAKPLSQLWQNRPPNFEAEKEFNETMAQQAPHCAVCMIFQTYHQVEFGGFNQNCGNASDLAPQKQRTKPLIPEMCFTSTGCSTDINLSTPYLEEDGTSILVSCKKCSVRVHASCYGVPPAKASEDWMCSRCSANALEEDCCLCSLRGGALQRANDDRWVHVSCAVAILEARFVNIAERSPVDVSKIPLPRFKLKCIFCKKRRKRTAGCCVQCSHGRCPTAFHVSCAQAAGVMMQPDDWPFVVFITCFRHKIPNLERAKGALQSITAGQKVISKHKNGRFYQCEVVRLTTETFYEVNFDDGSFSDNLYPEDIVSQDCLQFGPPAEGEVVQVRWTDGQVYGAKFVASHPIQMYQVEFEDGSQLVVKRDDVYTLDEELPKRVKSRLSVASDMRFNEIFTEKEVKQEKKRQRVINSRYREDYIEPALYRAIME
SMILES,"activity change, negative = inhibition",Potency
Cc1ccc(NC(=O)COC(=O)c2ccc3c(=O)n4c(nc3c2)CCC4)c(Br)c1,inactive: 0%,
Clc1ccc(C=NN2CCCCCC2)cc1Cl,,"inconclusive: 31.6 µM [inhibitor, full curve]"
O=C1c2[nH]nc(-c3ccccc3O)c2C(c2cccc(O)c2)N1Cc1ccco1 (stereo unspecified),,"inconclusive: 56.2 µM [inhibitor, partial curve]"
CSCCC(NS(=O)(=O)c1ccc(C)cc1)C(=O)NCCc1c[nH]c2ccccc12 (stereo unspecified),,"inconclusive: 50.1 µM [inhibitor, partial curve]"
COc1ccc(N2CCN(C(=O)C(C)n3nc(C)c4sc5ccccc5c4c3=O)CC2)cc1 (stereo unspecified),inactive: -34.1%,
COc1ccc(NC(=S)Nc2ncccc2C)c(OC)c1,,active: 50.1 µM
Cc1ccc(OCC(=O)Nc2nonc2-c2ccc(Br)cc2)cc1C,inactive: -9.93%,
CC1CCN(C(=O)CCc2ccc(Oc3cc([N+](=O)[O-])cc([N+](=O)[O-])c3)cc2)CC1,,active: 12.6 µM
Cc1ccc(C(=O)NNC(=O)c2csc(N3CCOCC3)n2)o1,,"inconclusive: 2.82 µM [inhibitor, partial curve, poor fit]"
CC/C(=N/Nc1cccc(Cl)c1)c1cnnc(SC)n1,,"inconclusive: 14.1 µM [inhibitor, full curve, poor fit]"
Cc1ccc([N+](=O)[O-])cc1N(CC(=O)Nc1ccc(S(=O)(=O)Nc2cccc(C(F)(F)F)c2)cc1)S(C)(=O)=O,,"inconclusive: 15.8 µM [inhibitor, full curve]"
CN1CCN(Cc2nc3ccccc3c(=O)n2Cc2nc(-c3cccc([N+](=O)[O-])c3)cs2)CC1,,"inconclusive: 39.8 µM [inhibitor, partial curve]"
CCCCNC(=S)N=Nc1c(O)n(Cc2ccccc2)c2ccccc12,,"inconclusive: 50.1 µM [inhibitor, partial curve, poor fit]"
Cn1c(/C=C(\C#N)C(N)=S)ccc1-c1ccc(Br)cc1,,"inconclusive: 7.08 µM [inhibitor, full curve]"
Cc1cc(C(=O)CSc2nnc(-c3ccccc3)n2-c2ccccc2)c(C)n1-c1ncn[nH]1,,"inconclusive: 79.4 µM [inhibitor, partial curve]"
COc1ccc(OCC(=O)Nc2ccc(C)c(S(=O)(=O)N(C)C)c2)cc1,inactive: -9.79%,
Cc1ccccc1CC1SC(N)=NC1=O (stereo unspecified),inactive: -12.6%,
C/C(=N\NC(=O)c1ccc(C(=O)N/N=C(\C)c2ccco2)o1)c1ccco1,,"inconclusive: 50.1 µM [inhibitor, partial curve]"
Cc1ccc(NC(=S)C2=C(O)c3ccccc3N(C)S2(=O)=O)cc1,,"inconclusive: 79.4 µM [inhibitor, single point]"
CCOC(=O)c1c(C)[nH]c(C)c1C(=O)CSc1nnc(-c2ccncc2)n1Cc1ccccc1,inactive: -21.7%,
COc1ccc(-c2nnc(SC(C)C(=O)O)o2)cc1 (stereo unspecified),inactive: -17.5%,
Cc1[nH]c2ccccc2c1C1(O)C(=O)N(Cc2ccccc2)c2ccc(Cl)cc21 (stereo unspecified),,"inconclusive: 39.8 µM [inhibitor, partial curve]"
COc1ccc(N/C(N)=N/c2nc(C)cc(=O)[nH]2)cc1,,"inconclusive: 39.8 µM [inhibitor, single point]"
COc1ccc(N2CCN(C(=O)c3cc(S(=O)(=O)N4CCCCCC4)ccc3OC)CC2)cc1,,"inconclusive: 35.5 µM [inhibitor, partial curve]"

SMILES,"activity change, negative = inhibition",Potency
CS(=O)(=O)Nc1ccc(C2=NN(S(C)(=O)=O)C(c3ccc4c(c3)OCO4)C2)cc1 (stereo unspecified),inactive: -7.96%,
N#C/C(=C/c1ccc(N2CCCCCC2)o1)c1cccc(F)c1,,active: 39.8 µM
CCc1cccc(NC(=S)N(CCOC)C(C)c2ccco2)c1 (stereo unspecified),inactive: -6.32%,
CCn1c(SCC(=O)Nc2ccc3c(c2)OCO3)nc2c(c1=O)SC(C)C2 (stereo unspecified),inactive: -28.3%,
Cc1ccc(O)c(-c2cc3ccccc3[nH]2)c1,,"inconclusive: 31.6 µM [inhibitor, partial curve]"
O=C(O)c1ccc(NS(=O)(=O)c2ccc3c(c2)C2C=CCC2C(c2ccccc2F)N3)cc1 (stereo unspecified),,"inconclusive: 89.1 µM [inhibitor, partial curve]"
COc1ccc(C[C@H]2CN3C(=NC[C@@H]3Cc3ccccc3)N2CCNC(=O)c2ccc(C)c(Br)c2)cc1,,"inconclusive: 22.4 µM [inhibitor, single point]"
Cc1ccc(S(=O)(=O)NCCC(=O)OCC(=O)N(Cc2ccccc2)C(C)(C)C)cc1C,inactive: -17.9%,
COc1ccccc1NS(=O)(=O)c1cc(C(=O)N2CCN(C/C=C/c3ccccc3)CC2)ccc1C,,"inconclusive: 22.4 µM [inhibitor, full curve, poor fit]"
O=C(O)c1cccc(-n2c(O)c(C=C3N=c4ccccc4=N3)sc2=S)c1,,"inconclusive: 28.2 µM [inhibitor, partial curve]"
CC1CN(c2ccc([N+](=O)[O-])nc2)CC(C)O1 (stereo unspecified),inactive: 0.692%,
O=C(CSc1cccc(C(F)(F)F)c1)NC(=O)NCc1ccco1,,active: 79.4 µM
Cc1c(C(C)(C)O)[nH]c2ccc(C(F)(F)F)cc12,,"inconclusive: 79.4 µM [inhibitor, partial curve]"
COc1cccc(CNC(=O)CCn2cnc3ccccc3c2=O)c1,,"inconclusive: 79.4 µM [inhibitor, partial curve]"
O=S1(=O)N=C(Oc2ccccc2)c2ccccc21,,active: 89.1 µM
NC1(C(=O)O)CC1,,active: 3.16 µM
O=C(Cn1c[n+](CC(=O)c2ccc([N+](=O)[O-])cc2)cn1)c1ccc([N+](=O)[O-])cc1,,"inconclusive: 79.4 µM [inhibitor, partial curve]"
CC(C)c1ccc(OCCCN2CCCC2)cc1,,active: 56.2 µM
Cc1cccc(NC(=O)CSC2=NN3CCCC(=O)N=C3S2)c1C,,"inconclusive: 56.2 µM [inhibitor, partial curve, poor fit]"
Cc1ccc(S(=O)(=O)CC(=O)Nc2nnc(C(C)(C)C)s2)cc1,,"inconclusive: 22.4 µM [inhibitor, single point]"
COc1cc(C(=O)NCCc2sc(-c3cccc(F)c3)nc2C)cc(OC)c1OC,inactive: -3.19%,
CC(C)(C)c1ccc(-c2nnc(SC3CCOC3=O)n2Cc2ccccc2)cc1 (stereo unspecified),,"inconclusive: 89.1 µM [inhibitor, single point]"
Cc1cc(C)n2nc(SCC(=O)N3CCCC3)nc2n1,,"inconclusive: 39.8 µM [inhibitor, single point]"
Oc1cc2c(cc1O)C1c3ccc(O)c(O)c3OCC1(O)C2 (stereo unspecified),,active: 3.55 µM

SMILES,"activity change, negative = inhibition",Potency
CCc1ccc(NC(=O)C2C3CCC(O3)C2C(=O)O)cc1 (stereo unspecified),inactive: -34.6%,
CCN1C(=O)[C@@H]2[C@@H](c3ccc(-c4ccc(OC)cc4)c(OC)c3)N3CCCC[C@@]3(C(=O)OC)[C@@H]2C1=O,inactive: -32.4%,
COc1cccc(C2c3[nH]c4ccccc4c3CCN2Cc2cccn2-c2ncccn2)c1 (stereo unspecified),,"inconclusive: 39.8 µM [inhibitor, partial curve]"
O=C1CCN(CCc2ccccc2)CCN1[C@H](COc1ccccc1)Cc1ccccc1,,"inconclusive: 50.1 µM [inhibitor, partial curve]"
Cc1ccc(C(C)C)cc1OCC(=O)N1CCN(C(=O)c2ccco2)CC1,inactive: -15.9%,
Cc1ccccc1OCC(O)CN1CCN(CCN2C(=O)c3cccc4cccc(c34)C2=O)CC1 (stereo unspecified),,"inconclusive: 70.8 µM [inhibitor, partial curve]"
Cc1cc(C)c(NC(=O)CN(C)C(=O)C2CC(=O)N(c3cccc4ccccc34)C2)c(C)c1 (stereo unspecified),inactive: -15.8%,
Cc1cc2oc(C(=O)N(Cc3ccc(N(C)C)cc3)Cc3ccco3)c(C)c2cc1Cl,,active: 12.6 µM
Cc1cc(-c2ccccc2)nc2cc(C(=O)OC(C)C)nn12,inactive: 4.32%,
CN1C(=O)NC(c2ccc(O)cc2)C2=C1CN(c1ccc(O)cc1)C2=O (stereo unspecified),inactive: -23.6%,
CCN1CCN(c2oc(COc3ccc(-c4ccccc4)cc3)nc2C#N)CC1,,"inconclusive: 0.708 µM [inhibitor, full curve, poor fit]"
Cn1c(=O)c2c(nc(NCCc3ccccc3)n2Cc2ccc(F)cc2)n(C)c1=O,,"inconclusive: 89.1 µM [inhibitor, single point]"
CC1CCC/C(=N/Nc2nc3ccccc3s2)C1 (stereo unspecified),,"inconclusive: 25.1 µM [inhibitor, partial curve]"
O=C(C1CCCN(c2nnc(-n3cccc3)s2)C1)N1CCN(c2ccccc2)CC1 (stereo unspecified),,"inconclusive: 89.1 µM [inhibitor, partial curve]"
O=C1CCN(C(=O)c2ccc(Cl)cc2)N1,,active: 89.1 µM
COc1ccc(OC)c(C2=Nn3c(nnc3-c3ccc(OC)c(OC)c3)SC2)c1,,"inconclusive: 89.1 µM [inhibitor, partial curve]"
COc1ccc(CCNc2oc(Cc3cccc4ccccc34)nc2C#N)cc1OC,,"inconclusive: 56.2 µM [inhibitor, partial curve]"
CC1=CC(C)(C)N2C(=O)C3(C(C#N)=C(N)Oc4cc(O)ccc43)c3cccc1c32 (stereo unspecified),,"inconclusive: 79.4 µM [inhibitor, partial curve]"
CCOc1ncccc1C(=O)Nc1ccc(F)c(Cl)c1,inactive: -4.76%,
C=CCOc1ccc2ccccc2c1CNn1cn[nH]c1=S,,"inconclusive: 39.8 µM [inhibitor, partial curve]"
CCOc1ccc(-n2cc(-c3ccccc3)c3c(NC4CCCC4)ncnc32)cc1,inactive: -27.2%,
Cc1ccc2cc(/C=C(\C#N)C(N)=O)c(N3CCCCC3)nc2c1,inactive: -1.3%,
O=C(COc1ccc(Cl)cc1)N1CCN(c2ccc([N+](=O)[O-])c(N3CCCCC3)c2)CC1,,"inconclusive: 2.82 µM [inhibitor, full curve]"
